According to the supplement of paper PMC11417369:
± gives the standard deviation of the averaged measurements. Some of the results follow.

What follows are sequences tested on PfAP2-I AP2 domain 3 (GST-tagged) (assay: gcPBM binding intensity (ln(normalized median fluorescence intensity)); higher = stronger DNA binding).
How it was run: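 An Agilent 4 × 180k array of primer-extended double-stranded 36-bp intergenic genomic probes, with negative controls, was incubated for 1 h with GST-tagged P. falciparum DNA-binding domains expressed in E. coli. Alexa488 anti-GST antibody detected bound protein, scanned at 488 nm. Binding intensity is the highest Masliner-normalised natural-log median intensity across replicate spots of either probe orientation.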
In the case of “TTTTAAAAAAATATAATACACACCAAAAATATGCAC [CACACA_site2131]”, the “gcPBM binding intensity (ln)” value is reported as 9.62 ± 0.014. In the case of “ACTATATATATAAGTGCATGTTCATTATACCTAAAG [TGCATGCA_site696]”, the “gcPBM binding intensity (ln)” value is reported as 8.93 ± 0.57. In the case of “CTCACAAATGAATACACACAAACATATATATTTATA [CACACA_site1620]”, the “gcPBM binding intensity (ln)” value is reported as 7.71 ± 0.32. “TATTGAAAGTGAATTATAACATTAAAAATATATATA [TGCATGCA_negctrl_site566]” was tested, and the “gcPBM binding intensity (ln)” value was 7.55 ± 0.59. In the case of “CAATATAAAAGACACACACACAAACATATATTTATA [CACACA_site7697]”, the “gcPBM binding intensity (ln)” value is reported as 7.74 ± 0.47. For “TGAATATGTAAATGCACACCAAAAAAAAAAAAAAAA [CACACA_site3566]”, the “gcPBM binding intensity (ln)” value was 9.86 ± 0.52. “GAAGGAAATAAATCAACACACATATATTATAGATAT [CACACA_site7095]” was tested, and the “gcPBM binding intensity (ln)” value was 7.54 ± 0.61. “ATAATGTAAAATAAATGTACGCAATATATAAAAAAT [XGTACX_site5747]” was tested, and the “gcPBM binding intensity (ln)” value was 8.21 ± 0.39. “AAAAAATTTTAATATGCATGTAATTTTGCTTTTTCA [TGCATGCA_site1044]” was tested, and the “gcPBM binding intensity (ln)” value was 7.92 ± 0.35. In the case of “TAATATAGGGGTGTTCAAATAAATTTTGTTATTTTT [CACACA_negctrl_site1203]”, the “gcPBM binding intensity (ln)” value is reported as 7.96 ± 0.54. In the case of “AGCACGCACAGACACACACACATATTTATATTTATA [CACACA_site6291]”, the “gcPBM binding intensity (ln)” value is reported as 8.22 ± 0.27. In the case of “ACCTATTTCAAACACACACACACACCCACAAACATA [CACACA_site977]”, the “gcPBM binding intensity (ln)” value is reported as 8.46 ± 0.4. In the case of “ACGAATATAGGATGTTTGCACTGTACCAATAAATGA [GTGCAC_site9808]”, the “gcPBM binding intensity (ln)” value is reported as 9.03 ± 0.35. For “TTCTTAATACAAATATGTACATATATATATATATAT [XGTACX_site757]”, the “gcPBM binding intensity (ln)” value was 9.21 ± 0.49. In the case of “AATAGAAAAAAAAAATGTACAAAATGTTTATAAAAA [XGTACX_site4635]”, the “gcPBM binding intensity (ln)” value is reported as 7.66 ± 0.77. For “TCATTTTAAGGAAAAAGTACAAAATAATATGTTCCT [XGTACX_site1903]”, the “gcPBM binding intensity (ln)” value was 7.54 ± 0.57. “GATGTGTAAATAAGGATATATAACAATCAACAAAAC [XGTACX_negctrl_site494]” was tested, and the “gcPBM binding intensity (ln)” value was 8.07 ± 0.47. “AAATGAATATAAAATATACACACTTATATATTGAAT [CACACA_site202]” was tested, and the “gcPBM binding intensity (ln)” value was 7.41 ± 0.4. With “AAATTACCCTTGTGTACACATATATTATCTGTATTA [CACACA_site4514]” the “gcPBM binding intensity (ln)” value was 8.42 ± 0.51. For AATATTCAATATAAAGTGCATTATTGTGCCCCTAAT, the “gcPBM binding intensity (ln)” value was 11.3 ± 0.64. “GTTATACATTTGAAAAGTACTCATGATTTTTTTTTT [XGTACX_site8177]” was tested, and the “gcPBM binding intensity (ln)” value was 7.75 ± 0.54. In the case of “ATAAAAATCAAAAAAAATACATAATAGTAATAATAA [GTGCAC_negctrl_site481]”, the “gcPBM binding intensity (ln)” value is reported as 7.71 ± 0.66. In the case of “TTTTTATTGTTATACTTATATTATTTTATGATTAAA [XGTACX_negctrl_site262]”, the “gcPBM binding intensity (ln)” value is reported as 7.83 ± 0.47. “AAATAGAAAAAATATACACACACTTATTAAATAAAA [CACACA_site3313]” was tested, and the “gcPBM binding intensity (ln)” value was 7.76 ± 0.53. “AAATAATAAAGTATAACACACATATTTATTTATATA [CACACA_site7822]” was tested, and the “gcPBM binding intensity (ln)” value was 7.47 ± 0.46. For “AAAATTAAAAAAATATGTACTTATGGGTAACATCAT [XGTACX_site5548]”, the “gcPBM binding intensity (ln)” value was 7.62 ± 0.43. With “CTGATATATTATTTATCTGAATATATTAATATGTAT [GTGCAC_negctrl_site82]” the “gcPBM binding intensity (ln)” value was 7.33 ± 0.52. For “ATAAAATTATTATATACATGCAAAATTAATATATTG [TGCATGCA_site507]”, the “gcPBM binding intensity (ln)” value was 7.66 ± 0.64. In the case of “TATCTTCATATATGGTGTACAGATTTTTTTTTTTTT [XGTACX_site5545]”, the “gcPBM binding intensity (ln)” value is reported as 7.92 ± 0.23. In the case of “TTTCTTTTTTTGGGCACACAAAATTTTCTCATTTTA [CACACA_site68]”, the “gcPBM binding intensity (ln)” value is reported as 8.22 ± 0.59. In the case of “ATTATATAATAATGCATGCACCTTATTTTCATTTCA [GTGCAC_site9922]”, the “gcPBM binding intensity (ln)” value is reported as 9.13 ± 0.45. For “AAAATAAAAAAAATGAATTAGTTAAATGAAAAATAA [CACACA_negctrl_site1294]”, the “gcPBM binding intensity (ln)” value was 7.34 ± 0.52. With “TGAATAAATAAACACACACACATATATATATCTGTA [CACACA_site4184]” the “gcPBM binding intensity (ln)” value was 7.59 ± 0.4. In the case of “AAGGATAATATATTAGAACACACATATATATGTAAA [CACACA_site7942]”, the “gcPBM binding intensity (ln)” value is reported as 7.69 ± 0.62. For “TTTATATAAAATTATTGTACAGTTTTAATATTTTAA [XGTACX_site6807]”, the “gcPBM binding intensity (ln)” value was 7.57 ± 0.43. “TACATACACAAATACACACACAAATACATACACAAA [CACACA_site704]” was tested, and the “gcPBM binding intensity (ln)” value was 7.92 ± 0.18. “TAAACAAATAAATATTGTACATTTTTTCCTTTTAAT [XGTACX_site5594]” was tested, and the “gcPBM binding intensity (ln)” value was 7.38 ± 0.39. With “CACAGACACGGACACACACACATATATAATATATAT [CACACA_site4495]” the “gcPBM binding intensity (ln)” value was 8.13 ± 0.28. In the case of “AAGATATGAACATTTTGTACTTAAAAATTCAATATT [XGTACX_site7103]”, the “gcPBM binding intensity (ln)” value is reported as 7.46 ± 0.47. For “ATATATTTATTTATATGTACATATTATATATTATAG [XGTACX_site3371]”, the “gcPBM binding intensity (ln)” value was 7.75 ± 0.29. In the case of “GATTATACAAAATATACACACGTGTACAGAAATATT [CACACA_site8305]”, the “gcPBM binding intensity (ln)” value is reported as 7.99 ± 0.45. “TTATATTAATTTTGTTGTACTATTTGTGCATTAAAT [XGTACX_site4790]” was tested, and the “gcPBM binding intensity (ln)” value was 11.1 ± 0.78. “AATATATAAATGTTGTGTACTAAGCAATATATTTTA [XGTACX_site2483]” was tested, and the “gcPBM binding intensity (ln)” value was 7.84 ± 0.44. With “ATTCGTCACATTTTTTGATATATATATATATATATA [CACACA_negctrl_site1785]” the “gcPBM binding intensity (ln)” value was 9.37 ± 0.33.
